Measurements from PMC4336329 (PLoS ONE, 2015).
The whole screen tested about 310,000 compounds, of which about 14,000 (4.5%) showed an effect of 50% or more. Effects have a minus sign here. Some of the results follow.

Biological target: human ether-à-go-go-related gene (hERG) potassium channel (human, UniProt Q12809)
Assay: primary screen, population patch clamp on CHO cells stably expressing hERG
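Also: peak tail current of the secondary pulse compared with the same well before compound.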

Chain of human ether-à-go-go-related gene (hERG) potassium channel (Q12809 whole entry, looked up): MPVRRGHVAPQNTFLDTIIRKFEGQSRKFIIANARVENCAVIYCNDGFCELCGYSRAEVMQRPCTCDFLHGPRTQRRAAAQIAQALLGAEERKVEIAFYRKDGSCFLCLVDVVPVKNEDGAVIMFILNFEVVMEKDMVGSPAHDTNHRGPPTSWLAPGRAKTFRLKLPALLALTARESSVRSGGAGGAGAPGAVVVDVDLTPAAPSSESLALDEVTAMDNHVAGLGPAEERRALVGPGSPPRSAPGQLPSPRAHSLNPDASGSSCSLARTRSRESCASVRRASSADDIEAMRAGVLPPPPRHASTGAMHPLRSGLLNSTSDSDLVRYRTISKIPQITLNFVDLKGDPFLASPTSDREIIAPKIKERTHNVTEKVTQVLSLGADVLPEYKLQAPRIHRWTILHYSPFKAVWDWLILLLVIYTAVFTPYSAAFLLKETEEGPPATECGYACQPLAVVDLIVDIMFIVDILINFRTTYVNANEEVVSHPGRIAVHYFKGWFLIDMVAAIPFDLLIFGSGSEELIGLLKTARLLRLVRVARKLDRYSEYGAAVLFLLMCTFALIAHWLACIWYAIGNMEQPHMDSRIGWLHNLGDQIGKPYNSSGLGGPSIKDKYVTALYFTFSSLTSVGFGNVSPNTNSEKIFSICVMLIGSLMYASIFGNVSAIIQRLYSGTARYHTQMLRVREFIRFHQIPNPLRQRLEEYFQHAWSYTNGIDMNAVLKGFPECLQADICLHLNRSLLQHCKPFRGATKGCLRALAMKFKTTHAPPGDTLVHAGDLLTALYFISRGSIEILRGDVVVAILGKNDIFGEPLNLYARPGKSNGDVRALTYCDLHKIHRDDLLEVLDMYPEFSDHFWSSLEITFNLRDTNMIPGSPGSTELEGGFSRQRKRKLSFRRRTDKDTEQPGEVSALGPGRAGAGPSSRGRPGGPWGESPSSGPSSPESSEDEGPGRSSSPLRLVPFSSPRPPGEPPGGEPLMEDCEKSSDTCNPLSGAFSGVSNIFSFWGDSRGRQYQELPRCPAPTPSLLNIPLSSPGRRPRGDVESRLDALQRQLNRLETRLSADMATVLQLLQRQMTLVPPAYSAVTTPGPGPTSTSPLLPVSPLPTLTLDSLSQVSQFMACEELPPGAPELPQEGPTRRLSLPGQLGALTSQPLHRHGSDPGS

| Structure (SMILES) | hERG current change (%, negative = inhibition) at 10uM [%] |
| --- | --- |
| Cn1nc(C(F)(F)F)c(/C=N/OC(=O)c2ccccc2)c1Sc1ccc(Cl)cc1 | 15.2 |
| CN(C)C(=O)CSc1n[nH]c(=O)[nH]c1=O | -8.5 |
| Cc1sc2ncnc(N3CCC(C(=O)Nc4nc(-c5ccc(F)cc5)cs4)CC3)c2c1C | 9.08 |
| CCCCN(C(=O)NC(=O)Nc1ccc(C)cn1)S(C)(=O)=O | 11 |
| Cc1ccc(SCCC(=O)OCC(=O)NCC2CCCCC2)cc1 | 1.15 |
| Cc1ccc(C)c(S(=O)(=O)Nc2ccc(O)cc2)c1 | 4.75 |
| Cc1ccccc1CN1[C@@H](C(C)C)COCCS1(=O)=O | -0.457 |
| CC(/C=N/NC(=O)CSc1nc2ccccc2n1C)=C\c1ccco1 | -19.6 |
| O=C(CN(CCN1CCOCC1)C(=O)Cn1nnc(-c2ccc(F)cc2)n1)NC1CCCCC1 | -4.75 |
| CCOC(=O)c1cc(NC(=O)c2cccnc2)ccn1 | -1.85 |
| COc1ccccc1CCC(=O)OCC(=O)c1c(N)n(CC(C)C)c(=O)n(C)c1=O | -70.3 |
| Cl.c1ccc(CNc2nc(NCc3ccccc3)c3ccccc3n2)cc1 | 2.65 |
| CC1(C)CC(c2csc(N)n2)CCO1 (centres unmarked) | 2.95 |
| CCn1c2ccccc2c2cc(NC(=O)CNCC3CCCO3)ccc21.O=C(O)C(=O)O (centres unmarked) | -28.4 |
| CC(C)CC(COCc1ccc(Cl)cc1)N1CCN(C(=O)c2ccc(C(F)(F)F)cc2)CCC1=O (centres unmarked) | -44.5 |
| O=C(c1cccn2c(=O)c3cc(Cl)ccc3nc12)N1CCN(Cc2ccc3c(c2)OCO3)CC1 | -75.2 |
| Cc1cccc(CN2CCN(CC(=O)NCCCN3CCN(c4ccc(F)cc4)CC3)C2=O)c1 | -69.8 |
| Cc1nc2sccn2c(=O)c1CCN1CCC(=C(c2ccccc2)c2ccc(F)cc2)CC1 | -78 |
| N#CC(C(=O)NCc1ccccc1)c1nc2ccccc2nc1N1CCCC1 (centres unmarked) | 5.08 |
| O=C(N1CCCCC1)N1CCN(C(=O)N(c2ccccc2)c2ccccc2)CC1 | -6.59 |
| COc1ccc(/C=C/C(=O)NCc2ccc3c(c2)OCO3)cc1OC | 8.54 |
| O=C(N/N=C\c1ccncc1)c1ccccc1O | -7.23 |

| Structure (SMILES) | hERG current change (%, negative = inhibition) at 10uM [%] |
| --- | --- |
| COc1cc2c(c(OC)c1OC)-c1ccc(OC)c(=O)cc1[C@@H](N(C)CC#CCO)CC2 | 8.03 |
| Cc1ccc(S(=O)(=O)N(CC(=O)N2CCCCCC2)c2ccccc2)cc1 | -1.96 |
| CC1CC(C)CN(C(=O)COC(=O)c2cn(C)c3ccccc23)C1 (centres unmarked) | -24.3 |
| Cn1c(=O)[nH]c2cc(Cl)cnc21 | 7.08 |
| Cc1nc2ccccc2c(=O)n1/N=C/c1ccco1 | -7.16 |
| CCc1ccc(S(=O)(=O)N(C(=O)c2ccncc2)c2ccc(OC(=O)c3ccncc3)cc2)cc1 | -10.1 |
| Cc1ccc2cc(CN(CCc3ccccc3)C(=S)NCCCN(C)C)c(=O)[nH]c2c1 | -72 |
| COc1ccccc1/C=C/C(=O)NC(=S)NC(C)C | -17.6 |
| COc1ccc(/C=N/Nc2ccccc2C(=O)O)cc1 | 21.5 |
| O=C(CSc1nc(C(F)(F)F)cc(=O)[nH]1)NCc1ccc2c(c1)OCO2 | 13.2 |
| COCCNC(=O)CN1C(=O)CC(C)(C)S(=O)(=O)c2ccccc21 | 17.3 |
| O=C(O)/C(=C/c1cccnc1)NC(=O)c1ccccc1 | 20.3 |
| Cc1oc(-c2ccccc2F)nc1CS(=O)(=O)CC(=O)NCc1ccco1 | -27.3 |
| C#CCOCCOCCOCCNc1nc(N2CCN(C(=O)[C@H](CCCCN)n3cc([C@@H](N)CO)nn3)CC2)nc(N2CCN(C(=O)[C@H](Cc3cc4ccccc4[nH]3)n3cc([C@@H](N)CO)nn3)CC2)n1.Cl | 13.8 |
| CCCc1cc(=O)oc2cc(C)cc(OCC(=O)NC(Cc3ccc(Cl)cc3)C(=O)O)c12 (centres unmarked) | 9.45 |
| Cc1[nH][nH]c(=O)c1C(c1ccc(-c2ccc(Cl)c(Cl)c2)o1)c1c(C)[nH][nH]c1=O | 18 |
| Cc1c(C(=O)C(=O)N2CCC3(CC2)OCCO3)c2ccccc2n1C | 29.2 |
| Cc1ccc(C)c(N2CCN(C3CCCCC3NS(=O)(=O)c3ccccc3)CC2)c1 (centres unmarked) | 9.4 |
| O=C(Nc1ccc(Cl)cn1)c1cnn2cccnc12 | 5.81 |
| CC(=O)C1=C(O)C(=O)N(CCc2ccccc2)C1c1ccccc1[N+](=O)[O-] (centres unmarked) | 20 |
| O=C(NCCCNC(=O)c1ccc(Cl)cc1Cl)c1ccco1 | -2.33 |
| Cc1c(C(=O)c2ccc(Cl)cc2[N+](=O)[O-])c2ccccn2c1CCC#N | -14.9 |
